Experiments:
wildtype fish = test: Optical voltage mapping of embryonic hearts, wildtype; assay type: in vivo, zebrafish; settings: 50 μM at 48 hpf
tb218 (bkd−/−) fish = test: Dose response and time series, suppression of the breakdance phenotype; assay type: in vivo, zebrafish; settings: for ED50, suppression of the breakdance phenotype: tb218 fish at 48 hpf treated for 24 hours
From the text: The wells were then scored for suppression of the breakdance phenotype at indicated times.

bkd−/− embryos = test: Optical voltage mapping of embryonic hearts, bkd−/−; assay type: in vivo, zebrafish; settings: 50 μM at 48 hpf
[1] = tested on: zebrafish LQT2 breakdance (bkd−/−) embryos; test: Small molecule suppressor screen, rescue of 2:1 AV block in breakdance embryos; assay type: in vivo; settings: 10 ng/μL added at 48 hpf, scored at 72 hpf
From the text: 1200 small-molecule compounds from a commercially available small molecule library were screened for the ability to rescue zebrafish LQT2 breakdance embryos to identify compounds that shorten ventricular action potential durations (APDs). The zebrafish breakdance (bkd) mutant carries an I59S mutation in KCNH2, the LQTS 2 gene, and has an easily observed cardiac phenotype. Moreover, the I59S KCNH2 mutation faithfully recapitulates in the zebrafish embryos many features of human LQTS: ventricular APD prolongation, spontaneous early after depolarizations, and 2:1 atrioventricular conduction (AV) block in early stages of development. Since cell-based chemical screens for trafficking rescue are susceptible to high false positive rates due to the presence of KCNH2 inhibitors in many chemical libraries, and because they focus on a single mechanism of rescue, the hypothesis that the zebrafish LQTS 2 model breakdance could provide a functional phenotypic screen for compounds that shorten myocardial repolarization was tested.
Breakdance homozygotes (bkd^−/−) develop 2:1 atrioventricular conduction block (two atrial beats for each ventricular beat) that is the result of a prolonged refractory period in the ventricle. This phenotype can be scored in vivo, owing to the transparency of the embryo, enabling a straightforward small molecule suppressor screen. Breakdance homozygotes are viable and fertile, with phenotypic penetrance of 92-96%.
Tubingen AB (TuAB) and tb218 (bkd^−/−) fish were maintained using standard methods. For screening, tb218^−/− adults were crossed, and embryos were reared in E3 buffer at 25° C. […] Accordingly, dechorionated embryos were plated three per well in 96-well plates in a final volume of 200 μL. At 48 hpf, library compounds (Prestwick and Chembridge) were added to a final concentration of 10 ng/μL. Zebrafish were visually scored at 72 hpf for presence or absence of a 2:1 AV block. […]

SMILES	APD90 (wildtype fish; wildtype embryos, recording at 72 hpf)	time series of rescue (tb218 (bkd−/−) fish; scored at indicated times)	ED50, suppression of the breakdance phenotype (tb218 (bkd−/−) fish)	ventricular action potential duration (bkd−/− embryos; recording at 72 hpf)	embryos in the well in which the 2:1 AV block was ameliorated (three embryos per well) [1]	ventricular action potential duration (wildtype fish; wildtype fish, recording at 96 hpf)	ventricular action potential duration (bkd−/− embryos; recording at 96 hpf)
COc1ccccc1C(=O)Nc1ccc(C)cc1 [2-MMB, 2-methoxy-N-(4-methylphenyl)benzamide]	200 ± 51 ms	higher rescue at later time points	~10 µM	376 ± 66 ms	all three embryos	–	–
CC(=O)OCC(=O)[C@@]12OC(C)(C)O[C@@H]1C[C@H]1[C@@H]3C[C@H](F)C4=CC(=O)C=C[C@]4(C)[C@@]3(F)[C@@H](O)C[C@@]12C [fluocinonide]	–	–	–	–	two of three embryos	–	–
CC1(C)O[C@@H]2C[C@H]3[C@@H]4C[C@H](F)C5=CC(=O)CC[C@]5(C)[C@H]4[C@@H](O)C[C@]3(C)[C@]2(C(=O)CO)O1 [flurandrenolide]	–	–	approximately 2 μM	–	–	227 ± 41 ms	338 ± 44 ms
CC(=O)[C@@]1(O)CC[C@H]2[C@@H]3C[C@H](C)C4=CC(=O)C=C[C@]4(C)[C@@]3(F)[C@@H](O)C[C@@]21C [fluorometholone]	–	–	–	–	two of three embryos	–	–

— US9447027B2, “Treating long QT syndrome” (The General Hospital Corporation, priority 2010, dated 2016)
